# In paper PMC4336329 (PLoS ONE, 2015):
# The whole screen tested about 310,000 compounds, of which about 2,200 (0.71%) showed an effect of 50% or more. The effect is printed as a negative number. The list shows a part of the results.
# Target: human ether-à-go-go-related gene (hERG) potassium channel (human, UniProt Q12809)
# Experiment: primary screen, population patch clamp on CHO cells stably expressing hERG
# human ether-à-go-go-related gene (hERG) potassium channel, sequence (Q12809 whole entry, looked up): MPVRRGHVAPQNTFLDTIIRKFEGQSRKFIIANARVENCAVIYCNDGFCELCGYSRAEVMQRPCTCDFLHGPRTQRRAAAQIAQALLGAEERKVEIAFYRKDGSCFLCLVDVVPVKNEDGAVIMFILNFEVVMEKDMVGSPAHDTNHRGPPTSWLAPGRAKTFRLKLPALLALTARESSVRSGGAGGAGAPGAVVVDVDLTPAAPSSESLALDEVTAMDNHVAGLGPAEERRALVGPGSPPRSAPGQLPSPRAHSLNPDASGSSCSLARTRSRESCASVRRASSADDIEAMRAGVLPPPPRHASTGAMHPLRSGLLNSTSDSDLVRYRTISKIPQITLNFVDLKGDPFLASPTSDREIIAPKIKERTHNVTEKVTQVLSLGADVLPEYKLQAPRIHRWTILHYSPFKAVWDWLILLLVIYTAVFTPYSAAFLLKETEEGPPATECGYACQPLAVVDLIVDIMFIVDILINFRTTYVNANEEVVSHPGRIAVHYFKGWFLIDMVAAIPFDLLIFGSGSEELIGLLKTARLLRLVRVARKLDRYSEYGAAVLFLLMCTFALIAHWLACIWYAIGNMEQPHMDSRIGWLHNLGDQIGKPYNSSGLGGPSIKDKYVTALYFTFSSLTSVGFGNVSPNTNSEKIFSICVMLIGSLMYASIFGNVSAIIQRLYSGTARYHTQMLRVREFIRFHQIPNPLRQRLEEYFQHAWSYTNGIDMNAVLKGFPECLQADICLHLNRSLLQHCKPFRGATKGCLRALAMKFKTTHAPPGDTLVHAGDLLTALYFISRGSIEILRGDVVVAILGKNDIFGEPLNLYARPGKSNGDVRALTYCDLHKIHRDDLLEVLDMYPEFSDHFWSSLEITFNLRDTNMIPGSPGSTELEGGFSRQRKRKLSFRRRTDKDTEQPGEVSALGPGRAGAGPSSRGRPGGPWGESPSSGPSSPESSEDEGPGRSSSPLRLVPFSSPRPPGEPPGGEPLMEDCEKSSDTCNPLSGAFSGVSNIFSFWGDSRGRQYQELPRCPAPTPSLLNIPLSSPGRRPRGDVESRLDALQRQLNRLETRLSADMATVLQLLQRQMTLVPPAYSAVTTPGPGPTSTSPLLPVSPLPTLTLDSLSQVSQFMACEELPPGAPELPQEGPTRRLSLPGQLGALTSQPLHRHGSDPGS
row,SMILES,"hERG current change (%, negative = inhibition) at 1uM [%]"
1,COc1ccc(S(=O)(=O)N2CCOCC2)cc1OC,3.04
2,CN1CCN(S(=O)(=O)c2cccc(C(=O)Nc3ccccc3N3CCOCC3)c2)CC1,11.9
3,O=C(OCc1ccc2c(c1)OCO2)c1ccc(S(=O)(=O)N2CCCC2)cc1,3.44
4,COc1ccc(C(=O)Nc2ccc3[nH]c(-c4cccc(OC)c4)cc(=O)c3c2)cc1,11.8
5,COC(=O)Nc1c(-c2ccccc2)nc2ccc(Cl)cn12,12.9
6,O=C(Cc1ccsc1)NCc1ccccc1F,19.2
7,Cc1occc1-c1nnc(SCC(=O)NCCc2ccccc2)o1,10.4
8,O=C(c1sc2ccccc2c1Cl)N1CCN(c2ccccc2F)CC1,-6.14
9,COc1ccc(N(CC(=O)NC2CCCC2)C(=O)CCC(=O)Nc2nc(C)cs2)cc1OC,-6.07
10,Cc1cc(C)c(OCCOCCN(C)C)c(Br)c1.O=C(O)C(=O)O,-3.91
11,Cn1c(N2CCC(C(N)=O)CC2)nc2c1c(=O)n(Cc1ccc(Br)cc1)c(=O)n2C,-24.6
12,CC1(C)CC(=O)C2=C(C1)OC(N)=C(C#N)C21CCN(C(=O)OCc2ccccc2)CC1,-0.0103
13,CCCC(=O)Nc1sc2c(c1C(=O)OCC)CC(C)(C)OC2,11
14,O=C(NC(=S)Nc1nc2ccccc2s1)c1cccs1,16.8
15,CCOC(=O)C1(Cc2ccc(OC)cc2)CCN(C(=O)CCc2cnccn2)CC1,10.2
16,COc1cccc(OC)c1C(=O)NC(=S)Nc1ccc2c(c1)OCCO2,13.5
17,CCCCn1c(Cc2ccccc2)n[nH]c1=S,9.59
18,Cc1ccc(S(=O)(=O)N2CCN(c3ccccc3)CC2)c(C)c1,16.7
19,Cc1ccc(-n2nc3c(N4CCC(C(=O)NCc5ccccc5C)CC4)nnc(C)c3c2C)cc1,11.3
20,O=C(COC(=O)CNC(=O)c1cccc([N+](=O)[O-])c1)Nc1cccc(S(=O)(=O)N2CCCCC2)c1,-5.96
21,CCN(CC)S(=O)(=O)c1ccc(/C=C/C(=O)Nc2ccc(F)cc2F)cc1,6.66
22,COC1Cc2ccccc2N(C(=O)N2CCN(CCO)CC2)c2ccccc21.Cl (stereo not shown),-6.58

row,SMILES,"hERG current change (%, negative = inhibition) at 1uM [%]"
1,C=C(C=O)CC1CC(O)[C@]2(C)OC3C[C@@H]4OC5C[C@]6(C)O[C@]7(C)CCC8OC9C[C@]%10(C)OC(/C(C)=C\CO)C(O)CC%10OC9CC(C)C8OC7CC6O[C@]5(C)C/C=C\C4OC3CC2O1 (stereo partly shown),7.21
2,CCN1CCCC(NC(=O)c2scc3c2CCCC3)C1 (stereo not shown),9.6
3,CCn1cc(C(=O)NCc2ccccc2OC)c(=O)c2ccc(C)nc21,18.3
4,CCOc1ccc(NC(=O)c2cccc(-n3cnnn3)c2)cc1,13.1
5,O=C(Nc1ccc(-c2nc3ncccc3o2)cc1)c1ccc(Br)o1,11.7
6,O=C(O)c1ccc(NC(=O)c2cn(-c3ccccc3)nc2-c2ccc(Cl)cc2)cc1,12
7,O=c1cc(C(F)(F)F)[nH]c2c(OC(F)(F)F)cccc12,4.32
8,O=C(N1CCOCC1)N1CCN(S(=O)(=O)c2ccc(Cl)cc2)CC1,3.43
9,Cc1ccc(OCC(O)CNS(=O)(=O)c2ccccc2C(=O)N2CCCCC2)cc1 (stereo not shown),0.361
10,Cc1ccc2oc(=O)cc(CN3CC(C)OC(C)C3)c2c1 (stereo not shown),15.5
11,O=C1N(c2ccccc2C(F)(F)F)O[C@@]1(c1ccccc1)C1CCCCC1,2.93
12,Cc1ccc(NC(=O)C[n+]2cc(-c3ccc(C)cc3)n3c2CCC3)cc1.[Cl-],-15
13,Cn1c(COc2ccc([N+](=O)[O-])cc2)nnc1SCC(N)=O,4.02
14,COc1ccc(CN2CCC(=O)N([C@H](CO)CC(C)C)CC2)cc1,-1.27
15,CCOC(=O)C1CCC(CN(Cc2ccccc2C)S(=O)(=O)c2ccc([N+](=O)[O-])cc2)CC1 (stereo not shown),17.1
16,O=C(CSc1ncnc2c1oc1ccccc12)Nc1ccc2c(c1)OCCO2,6.96
17,CC1(C)NC(C(=O)O)Cc2c1[nH]c1ccccc21 (stereo not shown),8.54
18,COc1ccc(C(=O)/C=C/Nc2ccc(S(=O)(=O)Nc3cc(OC)nc(OC)n3)cc2)c(OC)c1,11.1
19,O=C(Nc1cccnc1)C1CCCN1S(=O)(=O)c1ccc(Cl)c(Cl)c1 (stereo not shown),-13
20,COc1ccccc1CNC(=O)COc1cccnc1[N+](=O)[O-],16.1
21,CC(=O)CC1(O)C(=O)N(Cc2ccccc2)c2ccccc21 (stereo not shown),2.2
22,CCn1cc(C(=O)NCC2COc3ccccc3O2)c2cc(OC)c(OC)cc2c1=O (stereo not shown),2.44

row,SMILES,"hERG current change (%, negative = inhibition) at 1uM [%]"
1,Cc1cc2cc(CN(Cc3cccs3)Cc3nnnn3CC3CCCO3)c(=O)[nH]c2cc1C (stereo not shown),1.6
2,CCCc1cc(=O)oc2c(C)c(OCC(=O)N3CCC(C(=O)O)(c4ccccc4)CC3)ccc12,-0.478
3,O=C(COc1coc(CN2CCN(c3ccccc3)CC2)cc1=O)NCC1CCCO1 (stereo not shown),11.2
4,O=C(CSCc1ccc(Cl)cc1)NN=C1CCCC1,8.83
5,CCOc1ccc(OCC)c(NC(=O)C2CCN(c3ncccn3)CC2)c1,-13.4
6,CS(=O)(=O)N(CC(=O)N1CCOCC1)c1cc(C(F)(F)F)ccc1Cl,16.8
7,CC(/C=C/c1ccccc1)=N\NC(=O)CSc1ccccn1,-1.91
8,Cc1ccccc1CN1CCN(CC(=O)NCc2ccco2)C1=O,15.5
9,Cc1cc(NC(=O)Nc2cc(Cl)sc2Cl)no1,10.3
10,CC(C)NC(=O)COC(=O)c1ccccc1Oc1ccccc1,-2.8
11,CCOc1ccc(C(C(=O)Nc2ccc(F)cc2)N(C(=O)Cn2nnc3ccccc32)C2CC2)cc1 (stereo not shown),-13
12,N#CCCN1CCN(C(=S)c2ccc(-c3cc(Cl)ccc3Cl)o2)CC1,2.02
13,CCC1CCc2sc(C(=O)NCC(c3ccccc3OC)N3CCCC3)cc2C1 (stereo not shown),4.93
14,O=C(CCn1c(=S)oc2ccccc21)N1CCN(c2ccc(F)cc2)CC1,-4.22
15,Cc1ccccc1Cn1cc(CCC(=O)N2CCOCC2)c2ccccc21,8.97
16,COC(=O)C1(C)NC(c2ccc(C)cc2)C2C(=O)N(c3ccc(F)cc3)C(=O)C21 (stereo not shown),5.81
17,COC(=O)c1ccc(CNC(=O)COC(=O)c2cc(Cl)nc(Cl)c2)cc1,10
18,O=C(C1CCN(C2CCN(Cc3ccc4cc(F)ccc4n3)CC2)CC1)N1CCCC1,-78.3
19,COc1cccc(OCC(O)CN(CCO)Cc2ccccc2)c1.Cl (stereo not shown),4.38
20,Clc1ccc2oc(-c3cccnc3)nc2c1,1.68
21,Cc1ccc(/C=N/NC(=O)c2nnn(-c3nonc3N)c2CN(C)C2CCCCC2)cc1,1.9
22,COc1cccc(-c2c(C(=O)N/N=C/c3ccco3)nnn2-c2nonc2N)c1,19.3

row,SMILES,"hERG current change (%, negative = inhibition) at 1uM [%]"
1,CSc1sc(-c2ccnc(SCC(=O)C(C)(C)C)n2)c2c1C(=O)CC(C)(C)C2,14.6
2,O=C(Nc1nccs1)c1ccc(Br)cc1,7.92
3,CCn1cc(CNC(=O)c2cc(COc3ccc(F)cc3F)on2)cn1,13.2
4,Cc1ccc(NS(=O)(=O)c2cc(C(=O)Nc3cccc(N(C)S(C)(=O)=O)c3)ccc2C)c(C)c1,10.2
5,C#CCOC(=O)Nc1cnccc1C(F)(F)F,5.2
6,O=C(O)C(Cc1ccc(F)cc1)c1ccccc1 (stereo not shown),16.2
7,CCn1cc(C(=O)NCC(=O)OC)c2cc(OC)c(OC)cc2c1=O,3.86
8,Cc1ccc(CS(=O)(=O)Cc2ccc(C(=O)NC3CC3)o2)cc1,15.7
9,O=C1c2ccccc2C(=O)N1CCCOCc1c[nH]c(=O)[nH]c1=O,10.9
10,CCCCN1C2=C(C(=O)CCC2)C(c2ccc(Cl)c(Cl)c2)C2=C1c1ccccc1C2=O (stereo not shown),20.5
11,O=C(CCS(=O)(=O)Cc1ccccc1)Nc1ccc2c(c1)OCCO2,6.57
12,COc1ccc([C@H]2C=C3CN(C(=O)OC(C)(C)C)S(=O)(=O)[C@H]3C[C@H]2OC(=O)c2cccs2)cc1,4.12
13,Cc1ccc(Nc2nnns2)cc1,15.9
14,Cc1ccc(NC(=O)C(OC(=O)c2cnc(C)cn2)c2ccccc2)c([N+](=O)[O-])c1 (stereo not shown),17.2
15,COc1cccc(OC)c1C(=O)N=c1sc2cc(S(C)(=O)=O)ccc2n1C,6.79
16,CC(=O)c1ccc(O)c(CC=C(C)C)c1,7.34
17,O=C(Nc1cccc(C(F)(F)F)c1)OCCN1CCN(Cc2ccccc2)CCC1=O,-7.18
18,CN(Cc1cccs1)C(=O)C1CCN(S(=O)(=O)c2ccccc2)CC1,-6.13
19,CCOC(=O)c1cc(C)n(-c2c(C)n(C)n(-c3ccccc3)c2=O)c1C,18.1
